Measured values taken from PubChem BioAssay AID463173 (ICCB-Longwood Screening Facility, Harvard Medical School, 2010).
The whole screen tested about 52,000 compounds, of which about 4,300 (8.3%) were called active. No stated cut-off is given here; in the data, active means survival mostly below about 52% (no sharp cut-off); inactive means mostly above about 56%. This is one part of the list.

Each compound was assayed on DeltatarO mutant (assay: growth inhibition of S. aureus wild type versus tarO mutant, primary screen, teichoic acid synthesis inhibitors, RN4220, OD600 (AID 463173)). Conditions: OD600, 18 h, stronger effect = lower value, screened at 18.75 µg/mL (by protocol).

| Structure (SMILES) | survival |
| --- | --- |
| COc1ccc(CCNC(=O)CCN2N=C(c3ccccc3)CCC2=O)cc1OC | inactive: 84% |
| Cc1ccc(NC(=O)N(Cc2c[nH]c3ccccc23)C2CCCCCC2)cc1C | inactive: 56% |
| O=C(OCCN1CCOCC1)c1ccccc1 | inactive: 88% |
| COc1ccc(CCNC(=O)Cc2c(C)c3ccc(O)c(C)c3oc2=O)cc1OC | inactive: 63% |
| O=c1n(Cc2ccc([N+](=O)[O-])cc2)c2ccccc2c2nc(-c3ccccc3)nn12 | inactive: 129% |
| CSc1ccc(CCNC(=O)CN2C(=O)COc3ccc(S(=O)(=O)N4CCCC4)cc32)cc1 | inactive: 112% |
| CCOc1ccc(NC(=O)c2cnn3c2NC(c2ccccc2)=CC3c2cccc(OC)c2OC)cc1 (configuration not stated) | inactive: 62% |
| Clc1ccc(-c2nnn3c2nc(N2CCCCC2)c2ccccc23)cc1 | active: 25% |
| CCc1ccc(NC(=O)C2(c3cccs3)CCOCC2)cc1 | inactive: 73% |
| Cc1oc2ncn(CC(C)C)c(=O)c2c1C(=O)N1CCN(c2ccccc2F)CC1 | inactive: 67% |
| OC1CCNC(=S)N1c1ccccc1 (configuration not stated) | inactive: 78% |
| Cc1cc(C)c(NC(=O)CN(c2ccccc2)S(=O)(=O)N(C)C)c(C)c1 | inactive: 66% |
| Cc1ccc(-c2noc(CN(C(=O)c3ccc(C(C)(C)C)cc3)C(C)C)n2)cc1 | active: -4% |
| O=S(=O)(c1ccccc1)n1nc(-c2ccc(Cl)cc2)nc1NCc1ccc(F)cc1 | inactive: 53% |
| COc1ccc(N2CCN(CC(=O)N(C)C)CC2)cc1 | inactive: 75% |
| COc1cccc(NC(=O)Cn2c(=O)c3cccn3c3ccc(F)cc32)c1 | inactive: 76% |
| CCOC(=O)c1ccccc1NC(=O)CN(c1cc(C(F)(F)F)ccc1Cl)S(C)(=O)=O | inactive: 65% |
| CCCCSCCCNC(=O)c1cn(CC)c2ccc(S(=O)(=O)N(C)C3CCCCC3)cc2c1=O | active: 24% |
| COc1cccc(-c2nc(SCC(=O)NCc3ccccc3)c3c(=O)n(C)c(=O)n(C)c3n2)c1 | inactive: 99% |

| Structure (SMILES) | survival |
| --- | --- |
| O=C(Cn1ccc2cc(S(=O)(=O)N3CCCCCC3)ccc21)NCCc1ccccc1Cl | inactive: 88% |
| Cc1ccc(CCNC(=O)CCS(=O)(=O)c2ccc3c(c2)oc(=O)n3C)cc1 | inactive: 86% |
| COc1cccc(N2CCN(S(=O)(=O)c3ccc(-c4cc(C(F)(F)F)on4)s3)CC2)c1 | inactive: 95% |
| Cc1ccccc1-n1c(=O)c2ccccc2n(Cc2ccc(F)cc2)c1=O | inactive: 88% |
| CCOC(=O)c1cnc2c(Cl)c(Cl)ccc2c1Nc1ccc(N(C)C)cc1 | inactive: 80% |
| COC(=O)c1sc2cccc(F)c2c1S(=O)(=O)NCc1ccc(F)cc1 | inactive: 103% |
| COc1ccc(C2CC(=O)N(Cc3cccc(C)c3)c3c2c(C)nn3-c2nc(C)cc(C)n2)c(OC)c1 (configuration not stated) | inactive: 73% |
| COc1ccc(-n2c(=O)c3c4c(sc3n(Cc3c(F)cccc3Cl)c2=O)CN(C(C)=O)CC4)cc1OC | inactive: 99% |
| Fc1cccc(F)c1CSc1nc2ccccc2[nH]1 | inactive: 97% |
| O=C(Nc1ccc(F)cc1)c1ncn(-c2ccccc2)n1 | inactive: 86% |
| CCOc1ccccc1NC(=O)Cn1c(=O)n(-c2ccc(C)c(C)c2)c(=O)c2c(C)c(C(=O)N(C)C)sc21 | inactive: 106% |
| CC(OC(=O)c1cccs1)C(=O)NCC1CCCO1 (configuration not stated) | inactive: 85% |
| COc1cccc(-c2nnc(SCC(=O)N3CCc4ccccc43)o2)c1 | inactive: 70% |
| CC(Nc1ncnc2c1cnn2-c1cccc(Cl)c1)c1ccccc1 (configuration not stated) | inactive: 124% |
| O=C(NCc1ccc(Cl)cc1)C(=O)NCC(c1cccnc1)N1CCN(c2ccccc2)CC1 (configuration not stated) | inactive: 47% |
| CCS(=O)(=O)c1c(S(=O)(=O)CC)c2cc(C(C)(C)C)ccn2c1C(=O)c1ccc(F)cc1 | inactive: 65% |
| Cc1cc2c(cc1C)NC(CC(=O)Nc1cccc(C)c1C)C(=O)N2 (configuration not stated) | inactive: 68% |
| Cc1nc2ccccc2c2nc(N)nn12 | inactive: 85% |
| COc1cc(Cl)c(C)cc1NC(=O)Cn1cnc2sc(C)c(S(=O)(=O)N3CCCCC3)c2c1=O | inactive: 128% |

| Structure (SMILES) | survival |
| --- | --- |
| CCOc1ccccc1NC(=O)Nc1ccccc1OCc1cc(=O)n2ccccc2n1 | inactive: 95% |
| Cc1noc(NS(=O)(=O)c2ccc(NC(=O)COc3ccccc3Br)cc2)c1C | inactive: 53% |
| CN(CC(=O)NCc1ccc(Cl)cc1)S(=O)(=O)c1ccc2c(c1)c(=O)n(C)c(=O)n2C | inactive: 83% |
| Cc1ccc(CCNC(=O)c2ccc(CS(=O)(=O)Cc3ccc(Cl)cc3)o2)cc1 | inactive: 84% |
| CCOC(=O)c1scc(-c2ccc(C)cc2)c1S(=O)(=O)Nc1cc(C)ccc1C | inactive: 81% |
| COc1ccccc1N(CC(=O)NCCSc1ccccc1)S(=O)(=O)c1ccc(C)cc1 | inactive: 62% |
| Cc1cn2c(=O)cc(COC(=O)COc3ccc(F)cc3)nc2s1 | inactive: 70% |
| COc1cccc(-c2nn(C)c3sc(C(=O)N4CCN(c5cccc(C(F)(F)F)c5)CC4)cc23)c1 | inactive: 53% |
| COc1ccc(OC)c(S(=O)(=O)NCCc2sc(C)nc2C)c1 | inactive: 65% |
| CCCCNC(=O)c1ccc(-c2nc(CN3CCc4ccccc43)c(C)o2)cc1 | inactive: 117% |
| Cc1cccc(COc2ccc(-c3cc(C(F)(F)F)n4nc(C)cc4n3)cc2)c1 | active: 9% |
| CCc1ccc(-c2nc3cc(NC(=O)c4ccc(F)cc4)ccc3o2)cc1 | inactive: 83% |
| Cc1ccc(Nc2c3c(nc4ccccc24)CCC3)cc1F | active: 2% |
| CSc1nc2sc3c(c2c(=O)n1-c1ccc(C)cc1)CCCC3 | active: 39% |
| COc1ccc(Cl)cc1NC(=O)N1CCC2(CC1)Oc1ccccc1C(=O)N2Cc1ccc(F)cc1 | inactive: 71% |
| CCOC(=O)C1=C(CN(CC)Cc2ccccc2)NC(=O)NC1c1ccc(Cl)cc1 (configuration not stated) | inactive: 64% |
| COc1ccc(NC(=O)N2CCC(n3c(C)nc4cccnc43)CC2)cc1OC | inactive: 88% |
| Cc1ccc(OCCSc2nc3ccc(NC(=O)COc4ccc(C)cc4)cc3s2)cc1 | inactive: 91% |
| CCOC(=O)c1cnn(-c2cccc(Cl)c2)c1C1CCN(C(=O)OC(C)(C)C)CC1 | active: 55% |
